Screen size: about 310,000 compounds; about 14,000 (4.5%) showed an effect of 50% or more. Effects have a minus sign here. The list shows a part of the results.
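Also: peak tail current of the secondary pulse compared with the same well before compound.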

The target of this assay is human ether-à-go-go-related gene (hERG) potassium channel (human, UniProt Q12809). Briefly: primary screen, population patch clamp on CHO cells stably expressing hERG.
Sequence of human ether-à-go-go-related gene (hERG) potassium channel (Q12809 whole entry, looked up): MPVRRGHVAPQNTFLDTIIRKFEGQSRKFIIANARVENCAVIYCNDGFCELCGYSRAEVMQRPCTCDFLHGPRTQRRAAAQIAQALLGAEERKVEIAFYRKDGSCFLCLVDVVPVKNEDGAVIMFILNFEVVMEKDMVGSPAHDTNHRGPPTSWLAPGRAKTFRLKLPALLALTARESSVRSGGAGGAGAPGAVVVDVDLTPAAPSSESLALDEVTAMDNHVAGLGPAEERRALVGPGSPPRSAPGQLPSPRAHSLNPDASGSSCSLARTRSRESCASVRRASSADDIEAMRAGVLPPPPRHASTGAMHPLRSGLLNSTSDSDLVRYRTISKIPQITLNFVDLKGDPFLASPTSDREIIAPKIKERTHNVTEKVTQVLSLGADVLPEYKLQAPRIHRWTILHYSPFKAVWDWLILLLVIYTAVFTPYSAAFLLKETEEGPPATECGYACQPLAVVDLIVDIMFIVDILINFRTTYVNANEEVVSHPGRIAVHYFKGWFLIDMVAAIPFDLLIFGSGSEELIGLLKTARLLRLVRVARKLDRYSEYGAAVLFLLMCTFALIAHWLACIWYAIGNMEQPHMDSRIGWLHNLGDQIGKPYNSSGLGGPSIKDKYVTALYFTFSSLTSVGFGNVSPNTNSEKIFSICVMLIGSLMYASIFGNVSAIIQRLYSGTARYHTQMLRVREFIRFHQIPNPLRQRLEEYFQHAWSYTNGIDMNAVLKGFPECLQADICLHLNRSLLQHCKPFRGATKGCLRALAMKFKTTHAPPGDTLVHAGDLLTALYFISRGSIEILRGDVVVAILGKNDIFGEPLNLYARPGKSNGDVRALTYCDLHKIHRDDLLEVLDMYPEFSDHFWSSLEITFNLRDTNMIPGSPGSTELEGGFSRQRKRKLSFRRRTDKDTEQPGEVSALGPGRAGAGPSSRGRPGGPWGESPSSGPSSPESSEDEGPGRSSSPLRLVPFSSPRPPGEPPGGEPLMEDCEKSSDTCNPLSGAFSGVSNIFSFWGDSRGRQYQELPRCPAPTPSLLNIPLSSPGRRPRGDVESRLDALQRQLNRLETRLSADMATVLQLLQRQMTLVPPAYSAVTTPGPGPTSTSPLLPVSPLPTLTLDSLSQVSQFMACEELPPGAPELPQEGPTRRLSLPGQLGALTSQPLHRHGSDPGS
As to `CCN(C(=O)COC(=O)CNC(=O)c1ccc(C)s1)c1ccccc1`, the “hERG current change (%, negative = inhibition) at 10uM” value is 16.5%.
In the case of `COc1ccc(N2CCN(c3nc(Cl)nc(Nc4ccc(F)cc4)n3)CC2)cc1` it was 7.8%; in that of `CN(C(=O)c1ccc(S(=O)(=O)N(C)C)cc1)c1ccc2ccccc2c1`, -18.4%.
Regarding `CC(C)COc1ccc(-c2nn(-c3ccccc3)cc2/C=C2/SC(=S)N(CC(=O)O)C2=O)cc1`, the “hERG current change (%, negative = inhibition) at 10uM” value was 10.2%.
In the case of `Cc1ccc(C)c(N(C(=O)CNC(=O)c2ccco2)C(C(=O)NC2CCCCC2)c2ccncc2)c1` (stereo not shown) it was 3.37%.
As to `COc1ccc(/C=C\C(=O)c2c(O)ccc3c(C)cc(=O)oc23)cc1`, the “hERG current change (%, negative = inhibition) at 10uM” value came out at 17.1%.
Regarding `CC(C)C[C@H](NC(=O)C1(c2ccccc2)CCN(C(=O)[C@H]2CSCN2C(=O)OC(C)(C)C)CC1)C(=O)O`, the “hERG current change (%, negative = inhibition) at 10uM” value is recorded as -8.02%.
Turning to `O=C(CCNS(=O)(=O)c1ccccc1F)NC1CCCCCC1`, the “hERG current change (%, negative = inhibition) at 10uM” value is reported as -3.14%.
In the case of `O=C(COC(=O)c1cn(-c2ccccc2)nc1-c1ccccc1)c1cccc([N+](=O)[O-])c1`, the “hERG current change (%, negative = inhibition) at 10uM” value worked out at 12.5%.
As for `CC(C)Oc1ccc(C(=O)/C(=C\c2cccs2)c2nc3ccccc3o2)cc1`, the “hERG current change (%, negative = inhibition) at 10uM” value turned out to be 24.3%.
In the case of `CCOC(=O)Cc1csc(/C(=N/O)C(N)=O)n1` it was 18%; in that of `O=C(O)COc1ccccc1Cc1ccccc1`, 5.22%.
In the case of `O=C(O)c1cc(Nc2cc(Cl)c3nonc3c2[N+](=O)[O-])ccc1O` it was 13.6%.
With `CC(=O)NC1(C(=O)O)CCCC1`, the “hERG current change (%, negative = inhibition) at 10uM” value came out at 7.13%.
In the case of `O=C(Nc1ccccc1)C12CC3CC(C1)CC(n1cnc([N+](=O)[O-])n1)(C3)C2`, the “hERG current change (%, negative = inhibition) at 10uM” value is given as -59.6%.
In the case of `Cc1ccc(NC(=O)CSc2nc3c(cc2C#N)C(=O)CCC3)cc1S(=O)(=O)N(C)C` it was -16.3%; in that of `CCOC(=O)c1c(C)[nH]c(C)c1C(=O)CSc1nc2ccccc2n1CC`, -10.7%; in that of `CCN(CC)C(=O)CSc1nc2ccccc2c(=O)n1CC`, -1.18%.
With `COc1ccc(OC)c(CNC(=O)Cc2c(C(=O)O)[nH]c3ccc(Cl)cc23)c1`, the “hERG current change (%, negative = inhibition) at 10uM” value was 17.4%.
In the case of `CCN(CC(=O)NCc1ccc(F)cc1)C(=O)c1cccnc1SC`, the “hERG current change (%, negative = inhibition) at 10uM” value is -62.9%.
As to `O=C(N=C1SC2CS(=O)(=O)CC2N1Cc1ccccc1)C1CCCO1` (stereo not shown), the “hERG current change (%, negative = inhibition) at 10uM” value is 7.06%.
Under `NC(=O)C(Cc1ccccc1)N1C(=O)c2ccccc2C1=O` (stereo not shown) stands 15%; under `O=C(Cc1nc2ccccc2[nH]1)N/N=C/c1ccccc1`, 13.1%; under `COc1cc2c(C(=O)N3CCN(C)CC3)c(C)n(C)c2cc1Br`, -9.17%.
In the case of `COc1ccc(OCC(=O)NNC(=O)c2cc3ccccc3o2)cc1` it was 7.23%; in that of `COc1ccc(C(=O)Nc2cccc([N+](=O)[O-])c2)cc1Br`, 0.628%.
In the case of `Clc1ccc(-c2noc(COc3ccccc3)n2)cc1` it was 1.83%; in that of `CCOC(=O)Cn1nnc(-c2ccc(S(C)(=O)=O)cc2)n1`, 23.2%; in that of `Clc1ccc(-c2cn(-c3ccccc3)c3[n+]2CCS3)cc1.[Br-]`, -59.4%.
On to `N[C@@H](Cc1cc(Br)c(O)c(Br)c1)C(=O)O`, for which the “hERG current change (%, negative = inhibition) at 10uM” value is reported as 8.52%.
Take `CCOc1ccccc1N1CCN(S(=O)(=O)c2cccs2)CC1`: the “hERG current change (%, negative = inhibition) at 10uM” value was 2.73%.
On to `CN(C)C(=O)CN1CCN(Cc2nc(CC3CC3)no2)CC1`, for which the “hERG current change (%, negative = inhibition) at 10uM” value is listed as 18.6%.
As to `Cc1ccc(/C=C/C(=O)OC(C)C(=O)NC2CCCCC2C)o1` (stereo not shown), the “hERG current change (%, negative = inhibition) at 10uM” value was -21.8%.
For `Cc1cc(C)c(OCCOCCN2CCNCC2)c(C)c1.O=C(O)C(=O)O`, the “hERG current change (%, negative = inhibition) at 10uM” value is given as 6.59%.
Under `COc1cc(NC(=O)Cn2c(-c3cncs3)nc3ccccc32)cc(OC)c1OC` stands -31.3%.
Under `CC1(C)Cc2ccccc2C(N)=C1C#N` stands -0.0363%; under `COc1ccccc1NS(=O)(=O)c1cccc(C(=O)N/N=C/c2cn(-c3ccccc3)nc2-c2ccccc2)c1`, -32.9%.
For `CC/C(=N\Nc1cccc2ccccc12)c1c(O)[nH]c(=O)[nH]c1=O`, the “hERG current change (%, negative = inhibition) at 10uM” value is listed as 10.5%.
Regarding `COC(=O)c1sccc1NC(=O)Nc1cccc(C(C)=O)c1`, the “hERG current change (%, negative = inhibition) at 10uM” value is -4.61%.
Under `CCC1CCC/C1=N\NC(=O)c1ccc(Cl)cc1` (stereo not shown) stands -4.87%; under `Cc1ccccc1S(=O)(=O)Nc1ncc(C(F)(F)F)cc1Cl`, 27.3%; under `NC(=O)Cn1cnc2nc3n(c2c1=O)CCC3`, -4.97%.
In the case of `C=CCn1c(SCC(=O)NC2CCCC2)nc2sc(C)cc2c1=O` it was -5.84%; in that of `COc1ccccc1CN1CCNC(=O)C1CC(=O)NCCC1=CCCCC1` (stereo not shown), 14.7%; in that of `NC(=O)NC(=O)COC(=O)CCCCCNS(=O)(=O)c1ccc2c(c1)OCCO2`, -1.97%.
Under `O=C(COc1ccc(S(=O)(=O)NC2CCCC2)cc1)NCC1CCCO1` (stereo not shown) stands 22.2%.
As to `FC(F)(F)c1cccc(Cc2noc(CN3CCC(N4CCCCC4)CC3)n2)c1`, the “hERG current change (%, negative = inhibition) at 10uM” value is -74.7%.
As to `O=c1cnc2cc([N+](=O)[O-])ccc2[nH]1`, the “hERG current change (%, negative = inhibition) at 10uM” value was found to be 20.9%.
Under `Cc1ccc(-n2nc3c(c2NC(=O)c2ccco2)CS(=O)(=O)C3)cc1C` stands -37.2%; under `CCSc1c([N+](=O)[O-])c(=O)n(-c2ccccc2)c2ccccc12`, -1.42%.
In the case of `COc1ccccc1N1CCN(C2CCCN(Cc3ccc(Cl)cc3)C2)CC1` (stereo not shown) it was -41.1%; in that of `Cc1occc1C(=O)N1CCC2(CCCN(Cc3ccc(F)c(F)c3)C2)C1` (stereo not shown), -16.4%; in that of `Cc1ccc(NC(=O)C(c2ccc(Cl)cc2)N2CCOCC2)cc1` (stereo not shown), -8.18%.
For `Clc1cccc(CN2CCN(Cc3ccco3)CC2)c1.O=C(O)C(=O)O`, the “hERG current change (%, negative = inhibition) at 10uM” value was -7.79%.
Regarding `CC(=O)c1ccc(NC(=O)C[n+]2ccc(N(C)C)cc2)cc1.[Cl-]`, the “hERG current change (%, negative = inhibition) at 10uM” value is reported as -5.89%.
As for `Cc1ccc(CNC(=O)CCC(=O)Nc2nnc(C)s2)cc1`, the “hERG current change (%, negative = inhibition) at 10uM” value amounted to 9.72%.
Turning to `Cc1noc(C)c1COc1cccc(C(=O)Nc2ccc3c(c2)OCO3)c1`, the “hERG current change (%, negative = inhibition) at 10uM” value is 9.81%.
As to `Cc1cccc(OCC(=O)Nc2ccccc2N2CCN(C)CC2)c1`, the “hERG current change (%, negative = inhibition) at 10uM” value is reported as -51.2%.
Under `COCCCNC(=O)CN1C(=O)c2cccc3cccc1c23` stands 10.5%.
In the case of `COc1ccc(-c2noc(CCC(=O)NC3CCN(Cc4ccccc4)CC3)n2)cc1`, the “hERG current change (%, negative = inhibition) at 10uM” value is on record as -45.7%.
For the compound `CCN(C(=O)CSc1ncnc2sccc12)c1c(N)n(Cc2ccccc2)c(=O)[nH]c1=O`, the “hERG current change (%, negative = inhibition) at 10uM” value is given as 2.15%.
Under `CCCC1(C(=O)OCC)NC(c2ccc(N(C)C)cc2)C2C(=O)N(c3ccc(F)cc3)C(=O)C21` (stereo not shown) stands -8.18%; under `O=c1[nH]c(=S)n(Cc2ccc(F)cc2)c(O)c1C=NCC1CCCO1` (stereo not shown), -61.9%; under `O=C(NCC1CCCO1)C(=O)NCC(c1ccco1)N1CCN(c2ccccc2)CC1` (stereo not shown), 0.7%.
`CCCCCCSc1ccc([C@H]2N[C@@](Cc3ccccc3)(C(=O)OC)[C@H]3C(=O)N(C)C(=O)[C@@H]23)cc1OC.O=C(O)C(F)(F)F`: the “hERG current change (%, negative = inhibition) at 10uM” value worked out at 5.93%.
As to `CCN(C1=NS(=O)(=O)c2ccccc21)N(CC)S(=O)(=O)c1ccc(C)cc1`, the “hERG current change (%, negative = inhibition) at 10uM” value is reported as 19.8%.
Under `N#Cc1ccsc1NC(=O)CN1CCCCCC1` stands -3.42%; under `COC(=NC1CCCC1)C(O)c1c[nH]c2ccccc12` (stereo not shown), -1.61%.
In the case of `CCC(C)/C(C)=N/NC(=O)c1ccc(COc2ccc(Cl)c(C)c2)cc1` (stereo not shown), the “hERG current change (%, negative = inhibition) at 10uM” value is recorded as 5.21%.
Under `COc1ccc(C(CC(=O)Nc2ccc(Cl)cc2F)NC(=O)C(F)(F)F)cc1` (stereo not shown) stands 8.62%; under `CC(C)(C)c1ccc(OCCCC(=O)NC2=NCCS2)cc1`, 1.68%; under `CN(CC(=O)Nc1ccc(F)cc1)C(=O)Cn1c(=O)oc2ccccc21`, -8.26%.
Turning to `COCC(=O)Nc1cc(C(=O)NCCc2ccccc2)ccc1Cl`, the “hERG current change (%, negative = inhibition) at 10uM” value was -21.3%.
As for `CCCCN1C(=O)C2(OCCCO2)c2cccc(C)c21`, the “hERG current change (%, negative = inhibition) at 10uM” value was 5.29%.
On to `CCN(CC)CCNC(=O)C1(O)c2cc(Br)ccc2NC(=O)N1c1cccc(OC)c1` (stereo not shown), for which the “hERG current change (%, negative = inhibition) at 10uM” value is recorded as 22%.
In the case of `COc1ccc(N(CC(=O)O)S(=O)(=O)c2c(C)n[nH]c2C)cc1` it was -23.2%.
In the case of `COC(=O)[C@@H]1CCCN1Cc1nc(Cc2ccc(OC)c(OC)c2)no1` it was 3.64%; in that of `Cl.NC(=NC1CCCCC1)c1ccc(Cl)cc1`, -39.2%; in that of `O=C(N/N=C/c1cc2c(cc1Br)OCO2)c1cc2ccccc2o1`, -44.5%.
In the case of `Oc1cccc2ccc(/C=C/c3cccs3)nc12` it was -14.4%; in that of `CC(C)(C)OC(=O)N1Cc2ccccc2C[C@H]1C(=O)NCC(=O)NCC1CCCO1` (stereo partly shown), 18.7%; in that of `CCOc1ccc(OCCC(=O)OCC(=O)NCc2ccccc2)cc1`, 21.9%.
Turning to `FC(F)(F)c1ccccc1NC(=S)Nc1ccccc1`, the “hERG current change (%, negative = inhibition) at 10uM” value was determined as 20.1%.
In the case of `O=C(COc1cccc2cccnc12)Nc1ccccc1N1CCOCC1` it was -37.7%.
On to `CC(C)C(=O)Nc1ccc(Cc2ccc(NC(=O)C(C)C)c(O)c2)cc1O`, for which the “hERG current change (%, negative = inhibition) at 10uM” value was -23%.
In the case of `CN1CCC(N(C)C(=S)NC(=O)c2cc(-c3cccc(Br)c3)nc3ccccc23)CC1` it was -15.3%.
In the case of `Cc1cccnc1NC(=O)c1cccc(S(=O)(=O)N2CCN(c3ccc(F)cc3)CC2)c1` it was -35.1%.
As for `COc1ccc(CNC(=O)CN2C(=O)NC(C)(c3cccc4ccccc34)C2=O)cc1OC` (stereo not shown), the “hERG current change (%, negative = inhibition) at 10uM” value is 11.3%.

The values are drawn from article PMC4336329 (PLoS ONE, 2015).
